# According to the supplement of paper PMC11283458:
# This is one part of the list. Repeats are few or missing, and single values can be far off.
# Assays:
# Assay in all cases: delta PSI of alternative exon relative to 0.4% DMSO control (RT-PCR) (percentage points); higher = more exon inclusion
# Details in all cases: concentration: not stated (optimised per compound); Neuro-2a
# [1] = tested on: Ergic3 microexon (endogenous)
# Protocol: (§1)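 Reads PSI of the Mef2d reporter microexon and of endogenous mouse neural alternative exons. dPSI is relative to the 0.4% DMSO control, single replicate.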
# [2] = tested on: Mast2 alternative exon (endogenous)
# Protocol: as §1
# [3] = tested on: Mgrn1 alternative exon (endogenous)
# Protocol: as §1
# [4] = tested on: Zdhhc20 alternative exon (endogenous)
# Protocol: as §1
# [5] = tested on: Asph alternative exon (endogenous)
# Protocol: as §1
# [6] = tested on: Trappc9 microexon (endogenous)
# Protocol: as §1
# 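Further: exons read include endogenous Mef2d, Mast2, Ergic3 and Trappc9 microexons plus the longer neural-regulated Zdhhc20, Mgrn1 and Asph cassette exons, alongside the reporter microexon.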
Structure (SMILES),delta PSI of alternative exon [1],delta PSI of alternative exon [2],delta PSI of alternative exon [3],delta PSI of alternative exon [4],delta PSI of alternative exon [5],delta PSI of alternative exon [6]
Oc1nc2ccccc2nc1-c1c[nH]c2ccccc12,-12.7,3.67,3.73,1.47,–,–
COc1ccc(C=C2CCCc3ccccc3C2=O)cc1,-8.38,-1.13,3.73,-2.81,–,–
CC1=C(/C=C/C(C)=C/C=C/C(C)=C/C(=O)Nc2ccc(O)cc2)C(C)(C)CCC1 [Fenretinide],-4.09,–,4.02,0.176,–,–
Cn1ncc(C(=O)Nc2ccc(Cl)c(Cl)c2)c1[N+](=O)[O-],-19.7,1.65,9.63,7.48,–,–
N#CC1=C(N)Oc2ccc3ccccc3c2C1c1cccc(F)c1 (centres undefined),–,–,–,-0.41,-1.37,-0.783
Cc1ccc(S(=O)(=O)N/N=C/c2cc(Cl)ccc2O)cc1,-19.9,–,26.2,25,–,–
N#Cc1c(-c2cccs2)oc(-n2cccc2)c1-c1cc(Br)cs1,-11.6,–,1.58,4.23,–,–
C(=NNc1ccc2ccccc2n1)c1ccccn1,-13,–,2.55,0.347,–,–
CC1(COc2ccc3c(c2)ncn3-c2ccc3cccc(N4CCC(N)CC4)c3n2)COC1 [Crenolanib],-10.7,5.57,10.7,13.2,–,–
Cc1onc(-c2ccccc2)c1C(=O)Nc1c(C(C)(C)C)nn(C)c1C(C)(C)C,–,–,–,-1.88,0.125,-2.21
CC1(c2ccc([N+](=O)[O-])cc2)NN=C(c2ccccc2)S1 (centres undefined),-7.29,3.55,3.19,-0.116,–,–
CN(C)S(=O)(=O)c1ccc2c(c1)/C(=C/c1cc3c([nH]1)CCCC3)C(=O)N2,-10.7,–,2.85,1.12,–,–
O=C(C=Cc1cc([N+](=O)[O-])ccc1Sc1ccc(C(F)(F)F)cn1)Nc1ccccc1,–,–,–,0.483,1.31,-0.222
